The least precise scores are not listed. Two further conditions of the source, in which the scores hardly spread, are not listed. Read del as a deletion of the residues named and ins as an insertion between two positions. For part of these data: The data file names ogerin without a concentration.
B1: GPR68, Q15743 (parent)
chain: MGNITADNSSMSCTIDHTIHQTLAPVVYVTVLVVGFPANCLSLYFGYLQIKARNELGVYLCNLTVADLFYICSLPFWLQYVLQHDNWSHGDLSCQVCGILLYENIYISVGFLCCISVDRYLAVAHPFRFHQFRTLKAAVGVSVVIWAKELLTSIYFLMHEEVIEDENQHRVCFEHYPIQAWQRAINYYRFLVGFLFPICLLLASYQGILRAVRRSHGTQKSRKDQIQRLVLSTVVIFLACFLPYHVLLLVRSVWEASCDFAKGVFNAYHFSLLLTSFNCVADPVLYCFVSETTHRDLARLRGACLAFLTCSRTGRAREAYPLGAPEASGKSGAQGEEPELLTKLHPAFQTPNSPGSGGFPTGRLA

Legend:
[1] = variants of: B1; test: cAMP reporter score (Enrich2 score, wild type = 0); higher = more signal; HEK293T, FACS bins
[2] = variants of: B1; test: surface expression score (Enrich2 score, wild type = 0); higher = more signal; HEK293T, FACS bins

Row | Variant | cAMP reporter score ([1]; pH 5.5) | cAMP reporter score ([1]; pH 6) | cAMP reporter score ([1]; pH 6, modulator: ogerin) | cAMP reporter score ([1]; pH 6.5, modulator: ogerin) | surface expression score [2]
1 | P351_N352insGS | -0.028 | 0.597 | 0.396 | 0.52 | 0.495
2 | P351_S353del | 0.83 | 0.426 | 0.924 | 0.414 | 0.172
3 | P351del | 0.459 |  | 0.201 | 0.729 | 0.54
4 | S353A | 0.372 | 0.364 | 0.454 | -0.04 | -0.252
5 | S353C | -0.171 | -0.175 | 0.465 | 0.241 | -0.295
6 | S353D | 0.077 |  | -0.123 | -0.157 | 0.037
7 | S353E | 0.391 | -0.147 | 0.363 | 0.72 | 0.679
8 | S353G | -0.397 |  | 0.372 |  | 0.399
9 | S353H | 0.739 | 0.753 | 0.16 | 1.03 | 0.268
10 | S353I | 0.847 | 0.741 | 1.37 | 1.34 | 0.636
11 | S353K | -0.11 | -0.879 | -0.258 | 0.44 | -0.411
12 | S353L | 0.123 |  | 0.047 | -0.325 | 0.437
13 | S353M | 0.526 |  | 1.01 | 1.07 | 1.54
14 | S353N | -0.191 |  | 0.355 | 0.359 | -0.373
15 | S353P | -0.728 | -0.299 | -0.639 | -0.304 | -0.453
16 | S353R | 0.373 | -0.328 | 0.399 | -0.212 | 0.377
17 | S353T | -0.214 | -0.088 | -0.369 | -0.551 | -0.399
18 | S353V | 1.22 | 0.785 | 0.279 | 1.33 | 0.254
19 | S353W | 0.457 | -0.843 | 0.411 | 0.299 | 0.215
20 | S353Y | -0.464 | 0.248 | -0.753 | -0.323 | 0.109
21 | S353_P354del | 0.178 | 0.508 | 0.686 | 0.598 | -0.327
22 | S353del | 0.231 |  | 0.449 | 0.07 | -0.46

Row | Variant | cAMP reporter score ([1]; pH 5.5) | cAMP reporter score ([1]; pH 6) | cAMP reporter score ([1]; pH 6, modulator: ogerin) | cAMP reporter score ([1]; pH 6.5, modulator: ogerin) | surface expression score [2]
23 | P354_G355insGS | 0.072 | 0.036 | 0.376 | -0.401 | 0.094
24 | P354_G355insGSG | 0.836 | -0.263 | 0.953 | 0.683 | 0.819
25 | G355_S356del | 0.098 | 0.561 | 0.417 | 0.05 | 0.138
26 | G355_S356insG | 1.84 |  | 2.27 | 1.46 | 0.997
27 | G355del | 0.613 |  | 1.03 | 0.474 | -0.244
28 | S356A | 0.174 | 0.213 | 0.665 | 0.651 | 0.159
29 | S356C | 0.472 |  | 0.128 | -0.021 | 0.198
30 | S356D | 1.01 | 0.808 | 0.73 | 1.8 | 1.21
31 | S356E | 1.15 |  | 0.917 | 0.913 | 0.069
32 | S356F | 0.185 | 0.142 | 0.369 |  | 2.11
33 | S356G | 0.28 |  | 0.11 | 0.347 | 0.267
34 | S356H | 1.49 |  | 1.38 | 1.27 | 
35 | S356K | 1.21 | 1.2 | 0.227 | 1.1 | 0.714
36 | S356L | 0.145 |  | 0.637 | 0.519 | -0.02
37 | S356M | 0.113 | 0.16 | -0.189 | 0.237 | 0.129
38 | S356N | 0.384 |  | 1.04 | 0.837 | 1.03
39 | S356P | -0.163 | -0.245 | -0.65 | 0.163 | -0.044
40 | S356Q | 0.833 | 2.86 | 1.45 | 1.09 | 0.382
41 | S356R | -0.295 | -1.3 | -0.367 | 0.325 | -0.191
42 | S356T | 0.633 | -0.911 | 0.857 | 0.182 | 0.559
43 | S356V | 0.383 | -0.898 | 1.15 | 1.53 | -0.201
44 | S356W | -0.393 | -0.541 | -0.06 | -0.576 | -0.541

Row | Variant | cAMP reporter score ([1]; pH 5.5) | cAMP reporter score ([1]; pH 6) | cAMP reporter score ([1]; pH 6, modulator: ogerin) | cAMP reporter score ([1]; pH 6.5, modulator: ogerin) | surface expression score [2]
45 | S356Y | 0.384 | 0.938 | 0.759 | 0.657 | 0.893
46 | S356_G357insG | -0.762 | -0.733 | -0.021 | -0.308 | -0.178
47 | S356_G357insGSG | 0.677 | 1.07 | 0.456 | 0.663 | 0.848
48 | S356del | 1.53 | 0.505 | 0.987 | 1.11 | 0.257
49 | G357_F359del | 0.979 | -0.003 | 0.286 | 0.533 | 0.617
50 | G357_G358insGSG | 0.283 | 0.483 | 0.55 | 0.56 | 0.179
51 | G358_P360del | -0.233 | -0.245 | 0.427 | 0.646 | -0.002
52 | F359A | -0.752 | 0.082 | -0.704 | -0.566 | -0.55
53 | F359D | -0.022 | 0.876 | 0.41 | 0.862 | 0.17
54 | F359E | 0.001 | 0.158 | -0.067 | -0.111 | 0.031
55 | F359G | 2.92 | 2.36 | 1.69 | 3.23 | 
56 | F359H | 0.278 | 0.188 | 0.473 | 0.512 | 0.597
57 | F359I | 0.505 | 0.606 | 1.29 | -0.062 | 0.076
58 | F359K | 0.052 | 0.543 | 0.116 | 0.767 | -0.572
59 | F359L | 0.609 | 1 | 0.944 | 1.12 | 1.42
60 | F359M | -0.276 | 0.289 | -0.734 | -0.007 | 0.292
61 | F359N | 1.23 |  | 0.792 | 1.15 | 2.79
62 | F359P | 1.51 | 1.18 | 1.55 | 1.77 | 1.06
63 | F359Q | 0.244 | 0.8 | 0.365 | 0.621 | 0.601
64 | F359R | 0.939 | 0.738 | 0.993 | 0.607 | 0.748

Reference: the GPR68 mutational scans of Howard et al. (2025)
